Data taken from PubChem BioAssay AID1460 (National Center for Advancing Translational Sciences (NCATS), 2008).
In all, about 270,000 compounds went through this assay and about 5,800 (2.1%) were called active. The inconclusive results got no clear call from the source; some entries with a clear call stand among them for comparison. Calls come from the whole dose curve; as a rule, active = well fitted inhibition curve with a large enough effect; inconclusive = small, poorly fitted or top-dose-only effect; inactive = flat fitted curve, though single readings scatter. Potencies of inconclusive entries are doubtful fits and often do not repeat.

Each compound was assayed against Microtubule-associated protein tau (Homo sapiens) (UniProt P10636) (assay: qHTS for Inhibitors of Tau Fibril Formation, Thioflavin T Binding). Details: recombinant tau K18 P301L, heparin-induced fibrillization, ThT fluorescence; series mostly up to 57.4 µM.
Sequence of UniProt P10636 (P10636 whole entry, looked up): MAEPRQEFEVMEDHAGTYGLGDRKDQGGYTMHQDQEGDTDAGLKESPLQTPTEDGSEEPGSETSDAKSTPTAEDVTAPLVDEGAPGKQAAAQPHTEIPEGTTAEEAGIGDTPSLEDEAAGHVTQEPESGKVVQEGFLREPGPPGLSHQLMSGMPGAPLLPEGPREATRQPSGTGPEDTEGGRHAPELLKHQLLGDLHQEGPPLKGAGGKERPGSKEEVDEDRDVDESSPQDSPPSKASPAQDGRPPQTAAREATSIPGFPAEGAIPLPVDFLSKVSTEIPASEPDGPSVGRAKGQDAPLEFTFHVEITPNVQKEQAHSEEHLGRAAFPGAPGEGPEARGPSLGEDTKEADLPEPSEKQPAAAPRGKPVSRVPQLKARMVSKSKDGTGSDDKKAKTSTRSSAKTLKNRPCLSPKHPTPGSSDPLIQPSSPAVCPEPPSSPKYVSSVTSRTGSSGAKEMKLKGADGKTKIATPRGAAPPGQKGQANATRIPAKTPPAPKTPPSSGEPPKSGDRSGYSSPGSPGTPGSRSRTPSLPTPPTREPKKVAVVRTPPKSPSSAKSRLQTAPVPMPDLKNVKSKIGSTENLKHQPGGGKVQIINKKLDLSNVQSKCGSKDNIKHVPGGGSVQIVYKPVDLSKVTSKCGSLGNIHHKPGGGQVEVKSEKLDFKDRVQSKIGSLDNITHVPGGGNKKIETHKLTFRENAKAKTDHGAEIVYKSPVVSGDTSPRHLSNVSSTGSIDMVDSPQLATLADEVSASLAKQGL
Outline: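 Fibril formation assay: tau K18 P301L at 15 uM with trace Alexa 594 label, heparin inducer 20 uM, pH 7 sodium acetate buffer, 37 C for 6 hr; endpoint ThT signal.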
Note: nearly all actives have a fitted effect of over 55% in size.
Potency is the fitted concentration of half-maximal effect; tags give direction and shape of the fitted curve.

Row | Structure (SMILES) | Potency
1 | O=C(Nc1cccc(S(=O)(=O)N2CCOCC2)c1)c1ccc(N2CCOCC2)c([N+](=O)[O-])c1 | inconclusive: 25.1 µM [inhibitor, partial curve]
2 | CCOc1ccc(C(=O)N2CCN(c3cccc(C)c3C)CC2)cc1 | inconclusive: 17.8 µM [inhibitor, partial curve]
3 | CCOC(=O)c1ccc(-c2ccc(/C=C(\C#N)C(=O)NCC3CCCO3)o2)cc1 (configuration not stated) | inconclusive: 1.78 µM [inhibitor, full curve]
4 | Cn1c(=NC(=O)c2ccc(S(=O)(=O)N3CCCC3)cc2)sc2cc(F)ccc21 | inactive
5 | CNc1nc(-c2ccc([N+](=O)[O-])cc2)cs1 | active: 12.6 µM
6 | CCOC(=O)N1CCN(C(=O)c2cc3c(s2)-c2ccccc2OC3)CC1 | inconclusive: 10 µM [inhibitor, partial curve]
7 | CCOc1ccc(C)cc1S(=O)(=O)n1ccc(C)n1 | inactive
8 | Cc1cc(-n2c(C)cc(C(=O)COc3ccc4ccc(=O)oc4c3)c2C)no1 | inactive
9 | COc1ccc(-c2nc3ccccc3n2CCC(C)C)cc1OC | inconclusive: 7.08 µM [inhibitor, full curve]
10 | Cc1ccc(NC(=O)C2CCN(S(=O)(=O)c3ccc4[nH]c(=O)ccc4c3)CC2)cc1C | inactive
11 | CCc1ccc(N2CC(O)=C(c3nc4ccccc4c(=O)[nH]3)C2=N)cc1 | inconclusive: 4.47 µM [inhibitor, single point]
12 | Brc1ccc(CSc2nnc(-c3ccccn3)n2Cc2ccco2)cc1 | inconclusive: 39.8 µM [inhibitor, single point]
13 | CC(OC(=O)CCc1c[nH]c2ccccc12)C(=O)c1ccccc1 (configuration not stated) | inconclusive: 14.1 µM [inhibitor, partial curve]
14 | COc1ccc(N2CCN(C(=O)CSc3c4c(nc5ccc(Cl)cc35)CCCC4)CC2)cc1 | active: 14.1 µM
15 | CCn1c2c(c3cc(OCC(C)C)ccc31)CCCC2=O | inconclusive: 22.4 µM [inhibitor, partial curve]
16 | C#CCN1C(=O)C(O)(CC(=O)/C=C/c2ccco2)c2ccccc21 (configuration not stated) | inactive
17 | O=C(Nc1cccc(O)c1)c1cc2nc(-c3ccc(Br)cc3)cc(C(F)(F)F)n2n1 | inconclusive: 1.41 µM [inhibitor, full curve, poor fit]
18 | CCCCOc1ccc(C(=O)NCCc2sc(-c3ccc(OC)c(OC)c3)nc2C)cc1 | inconclusive: 8.91 µM [inhibitor, partial curve]
19 | N/C(=N\OC(=O)COc1ccc2ccccc2c1Br)c1cccnc1 | inconclusive: 3.16 µM [inhibitor, full curve]
20 | Cc1ccc(SC(=O)COc2ccccc2C)cc1 | inconclusive: 15.8 µM [inhibitor, partial curve]
21 | COc1ccc(/C=N/Nc2ncccc2[N+](=O)[O-])c(OC)c1 | active: 12.6 µM
22 | CC(=O)n1nc(-c2ccco2)nc1SCc1ccccc1 | inconclusive: 12.6 µM [inhibitor, partial curve]
23 | Cc1nc2nc(NC(=O)c3ccc(C(C)(C)C)cc3)[nH]n2c(=O)c1Cl | inconclusive: 20 µM [inhibitor, single point]
24 | CCNC(=S)N(Cc1ccccc1)Cc1nc2ccccc2c(=O)[nH]1 | inactive

Row | Structure (SMILES) | Potency
25 | COc1cc(/C=N\Nc2ccc([N+](=O)[O-])cc2)ccc1OCC(=O)Nc1ccc(C)c(C)c1 | active: 1.58 µM
26 | CCC(=O)NCC(=O)OCC(=O)c1ccccc1 | inactive
27 | COc1ccc(CNc2ccc(-c3ccccc3OC)nn2)cc1 | inactive
28 | CCOc1ccccc1NC(=O)C1CCN(S(=O)(=O)c2cc(Br)cc3c2N(C(C)=O)CC3)CC1 | inconclusive: 0.0251 µM [inhibitor, full curve, poor fit]
29 | CC(C)(C)SCCNC(=O)/C=C/c1cccc([N+](=O)[O-])c1 | inactive
30 | Cc1ccc2nc(CSc3nc(C)cc(C)c3C#N)[nH]c2c1 | active: 12.6 µM
31 | CC(C)Sc1nc(N2CCOCC2)c2c(c1C#N)CC(C)(C)SC2 | inconclusive: 14.1 µM [inhibitor, partial curve]
32 | O=C1/C(=C/c2cccc([N+](=O)[O-])c2)CSc2ccc(Cl)cc21 | inactive
33 | Cn1c(-[n+]2c(-c3ccccc3)cc(-c3ccccc3)cc2-c2ccccc2)nc2cc([N+](=O)[O-])ccc21 | inconclusive: 28.2 µM [inhibitor, partial curve]
34 | CCCCN1C2=C(C(=O)CC(C)(C)C2)C(c2ccccc2)C2=C1c1ccccc1C2=O (configuration not stated) | active: 14.1 µM
35 | CC1CCCN(c2ccc(C(=O)NCCc3ccccc3)cn2)C1 (configuration not stated) | inconclusive: 3.16 µM [inhibitor, full curve]
36 | Cc1cccc(Nc2nc(N)nc(CN3CCN(c4ccc(F)cc4)CC3)n2)c1 | inconclusive: 22.4 µM [inhibitor, partial curve]
37 | CCCC(CCC)=NNc1ccc(S(=O)(=O)Nc2ccccc2OC)cc1[N+](=O)[O-] | inconclusive: 17.8 µM [inhibitor, single point]
38 | COc1ccc(S(=O)(=O)c2c(Nc3c(C)cccc3C)sc(C(=O)c3ccc4c(c3)OCO4)c2N)cc1 | inactive
39 | COc1cc(NC(=O)CC2C(=O)N(c3cccc(C)c3)C(=O)N2Cc2ccco2)cc(OC)c1 (configuration not stated) | inactive
40 | Cc1oc(-c2cccc(Br)c2)[n+]([O-])c1C | inactive
41 | COc1ccc(N/N=C(/C)c2cnnc(-c3ccccc3)n2)cc1 | active: 2.82 µM
42 | O=C(CCn1c(=O)c2sccc2n(CC(=O)OCc2ccccc2)c1=O)NCc1ccccc1 | inactive
43 | COc1cc2c(cc1OC)CN(C(=O)c1ccc(Br)o1)CC2 | inconclusive: 25.1 µM [inhibitor, single point]
44 | CSc1nnc(-c2cc3c(s2)-c2ccccc2CC3)o1 | inconclusive: 1.26 µM [inhibitor, full curve]
45 | CCOC(=O)c1sc(NC(=O)c2ccc(C)s2)cc1C | inactive
46 | COc1ccc(-c2ccccc2)cc1NCc1ccc(OC)c(OC)c1 | inconclusive: 14.1 µM [inhibitor, partial curve]
47 | CCN=C1NN=C(c2c[nH]c3ccccc23)CS1 | inconclusive: 15.8 µM [inhibitor, partial curve, poor fit]
